Measurements: PubChem BioAssay AID1468 (National Center for Advancing Translational Sciences (NCATS), 2008)
Values joined by “and” are separate entries in the source; they are usually repeats but may differ in a detail not shown here. Equal entries are not always repeated. Among all 280,000 compounds or so, about 1,100 (0.39%) were called active. The inconclusive results got no clear call from the source; some entries with a clear call stand among them for comparison. Calls come from the whole dose curve; as a rule, active = well fitted inhibition curve with a large enough effect; inconclusive = small, poorly fitted or top-dose-only effect, or effect the other way; inactive = flat fitted curve, though single readings scatter. Potencies of inconclusive entries are doubtful fits and often do not repeat.

Target: Microtubule-associated protein tau (Homo sapiens) (UniProt P10636)
Test: qHTS for Inhibitors of Tau Fibril Formation, Fluorescence Polarization; note: nearly all actives have a fitted effect of over 55% in size
Details: K18 P301L tau heparin fibrillization, Alexa594 FP, 6 h; series mostly up to 57.7 µM
How it was run: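 FP of Alexa 594-tau after heparin (20 uM) induction. Substrate: human K18 P301L, 15 uM unlabeled, 0.24 uM labeled. Buffer 100 mM sodium acetate pH 7. 6 hr, 37 C.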
Potency is the fitted concentration of half-maximal effect; tags give direction and shape of the fitted curve.

UniProt P10636, sequence (P10636 whole entry, looked up): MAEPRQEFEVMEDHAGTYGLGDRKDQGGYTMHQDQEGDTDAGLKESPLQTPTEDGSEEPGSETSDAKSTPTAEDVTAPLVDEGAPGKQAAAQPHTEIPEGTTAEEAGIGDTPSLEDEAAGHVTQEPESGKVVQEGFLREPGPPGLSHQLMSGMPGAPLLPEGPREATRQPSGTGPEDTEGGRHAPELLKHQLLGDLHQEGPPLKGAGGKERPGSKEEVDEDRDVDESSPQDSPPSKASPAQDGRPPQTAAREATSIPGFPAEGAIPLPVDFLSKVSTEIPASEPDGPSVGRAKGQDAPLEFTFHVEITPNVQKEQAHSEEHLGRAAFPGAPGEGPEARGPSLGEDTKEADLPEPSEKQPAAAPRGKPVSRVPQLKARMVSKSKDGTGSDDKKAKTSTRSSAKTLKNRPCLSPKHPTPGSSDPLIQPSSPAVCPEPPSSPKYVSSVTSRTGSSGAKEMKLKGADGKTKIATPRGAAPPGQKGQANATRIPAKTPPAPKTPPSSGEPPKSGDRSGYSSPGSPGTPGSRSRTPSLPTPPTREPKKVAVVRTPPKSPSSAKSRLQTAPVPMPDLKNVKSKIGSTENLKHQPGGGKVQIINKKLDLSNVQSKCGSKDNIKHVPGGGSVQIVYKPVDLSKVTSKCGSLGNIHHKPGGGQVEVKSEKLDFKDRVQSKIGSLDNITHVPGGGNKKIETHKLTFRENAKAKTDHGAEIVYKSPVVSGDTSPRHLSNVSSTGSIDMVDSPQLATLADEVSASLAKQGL

| SMILES | Potency |
| --- | --- |
| O=C(Nc1ccccc1N1CCCCC1)c1ccc(Cl)c([N+](=O)[O-])c1 | inactive |
| C=CC(C1=CC(=O)C(OC)=CC1=O)c1ccc(OC)cc1 (centres undefined) | inconclusive: 20 µM [inhibitor, partial curve] |
| Cc1ccc(S(=O)(=O)NCC2CCC(C(=O)NCc3cccnc3)CC2)cc1 (centres undefined) | inactive |
| CC(CNC(=O)C1CCN(Cc2cc3ccccc3n2Cc2ccccc2)CC1)c1ccccc1 (centres undefined) | inactive |
| CC(C)Oc1ccc(CNS(=O)(=O)c2cnc(N)nc2)cc1 | inactive |
| CCOc1cc(CNCCSc2nnnn2-c2ccccc2)cc(Cl)c1OC | inactive |
| CC(C)N1CCC2(CC1)C(C#N)=C(N)NC(S)=C2C#N | inconclusive: 15.8 µM [inhibitor, partial curve, poor fit] |
| CCC(=O)Nc1cccc(-c2csc(-c3ccccc3)n2)c1 | inconclusive: 35.5 µM [inhibitor, partial curve] |
| COc1ccccc1C(=O)Oc1ccc2c(c1)O/C(=C\c1ccncc1)C2=O | inconclusive: 25.1 µM [inhibitor, partial curve] |
| O=C(O)COc1ccc(/C=C/c2nc3ccc([N+](=O)[O-])cc3s2)cc1 | inactive |
| Nc1ccc(Nc2ccccc2)cc1 | inconclusive: 28.2 µM [inhibitor, partial curve, poor fit] |
| O=C(COc1ccccc1)Nc1ccc(S(=O)(=O)N(Cc2ccccc2)c2ccccc2)cc1 | inconclusive: 7.94 µM [inhibitor, partial curve] |
| C=C(C)COc1ccc(-c2[nH]ncc2-c2ccc(Br)cc2)c(O)c1 | active: 28.2 µM |
| Cc1c(Cl)cccc1NC(=O)c1cnc2sc(N3CCCC3)nn2c1=O | inactive |
| O=C(CCCOc1ccc(Cl)cc1)N1CCCCCC1 | inactive |
| CCOc1cc(/C=C(\C#N)c2nc(-c3cccs3)c(NC(C)=O)s2)ccc1O | inconclusive: 3.98 µM [activator, full curve] |
| O=S(=O)(c1ccc2ccccc2c1)n1nc(-c2ccco2)nc1NCc1cccc(Cl)c1 | inconclusive: 39.8 µM [inhibitor, single point] |
| CC(C)CCNC(=S)Nc1ccccn1 | inactive |
| Cc1ccc(CNC(=O)c2ccc3c(c2)N(Cc2ccccc2F)C(=O)c2ccccc2S3(=O)=O)cc1 | inconclusive: 12.6 µM [inhibitor, partial curve] |
| CCCN1C(=O)/C(=C/c2ccc(N3CCCC3)c(C)c2)NC1=S | inconclusive: 10 µM [activator, partial curve] |
| Oc1c(I)cc(Cl)c2cccnc12 | inactive and inconclusive: 39.8 µM [inhibitor, single point] |
| COc1ccc(-c2nc(-c3ccccc3)c(-c3ccccc3)[nH]2)cc1Br | inconclusive: 3.55 µM [activator, full curve, poor fit] |
| CCCC12CN3CC(CCC)(CN(C1)C3c1c[nH]c3ccccc13)C2=O (centres undefined) | inactive |
| COc1ccc(CCNC(=O)c2cc(-c3ccccc3)nc3ccccc23)cc1OC | inactive |
| Cc1[nH]ccc(=O)c1OCc1c(F)cccc1Cl | inactive |

| SMILES | Potency |
| --- | --- |
| O=CN(/C=C1\Sc2ccccc2C1=O)Cc1ccccc1 | inactive |
| CCOc1ccc(-c2cc(NC(=O)Cn3ncc4c3-c3ccccc3OC4)on2)cc1OCC | inconclusive: 28.2 µM [inhibitor, partial curve, poor fit] |
| O=C(NCC1CCCO1)C(c1cccs1)N(Cc1ccccc1Cl)C(=O)c1ccc(-c2ccccc2)[nH]1 (centres undefined) | inactive |
| Cc1[nH]c2ccccc2c1SCc1ccccc1 | inactive |
| CC(C)c1nnc(N2C(=O)c3oc4ccccc4c(=O)c3C2c2cccc(O)c2)s1 (centres undefined) | inactive |
| Cc1cc(C(F)(F)F)n(-c2nc(C(=O)N/N=C/c3ccc(F)cc3)cs2)n1 | inactive |
| CC(c1nc2ccccc2c(=O)[nH]1)N1CCN(C)CC1 (centres undefined) | inconclusive: 14.1 µM [inhibitor, single point] |
| CCS(=O)(=O)N1N=C(c2ccc(C)cc2)CC1c1cc2ccc(OC)cc2nc1Cl (centres undefined) | active: 39.8 µM |
| O=C(Nc1ccc2nn(-c3ccccc3)nc2c1)c1cccnc1 | inconclusive: 12.6 µM [inhibitor, partial curve] |
| CN(C)c1cccc(C(=O)N/N=C/c2ccccc2F)c1 | inactive |
| CN(O)/C=C1\C(=O)Nc2ccccc21 | inconclusive: 0.141 µM [inhibitor, full curve, poor fit] |
| Nc1nncn1C(=O)CCCOc1ccc(Cl)cc1Cl | inactive |
| CCOC(=O)C(=NC1CCS(=O)(=O)C1)NNc1cc(Cl)ccc1Cl (centres undefined) | inconclusive: 8.91 µM [activator, full curve, poor fit] |
| O=C(COC(=O)c1ccccc1-c1ccccc1[N+](=O)[O-])c1ccccc1 | inconclusive: 44.7 µM [inhibitor, single point] |
| COC(=O)c1cc(OC)c(OC)cc1NC(=O)CN1C(=O)c2ccccc2C1=O | inconclusive: 2.82 µM [inhibitor, partial curve, poor fit] |
| Nc1ccc(OC(=O)Nc2ccc(O)cc2)cc1 | inconclusive: 12.6 µM [inhibitor, single point] |
| O=C1NC(=O)C(Cc2ccccc2)(c2cccnc2)N1 (centres undefined) | inactive |
| O=C(/C=C/N1CCOCC1)c1coc2ccccc12 | inconclusive: 0.708 µM [inhibitor, partial curve, poor fit] |
| C=CCc1c(C)nc2c(C)cccc2c1SC(=N)N | inactive |
| CC1=C(C(=O)Nc2ccccc2)C(c2ccncc2)C(C#N)=C(SCC(=O)NC(C)C)N1 (centres undefined) | inactive |
| Cc1ccc(S(=O)(=O)NC(C(=O)Oc2ccc3c(C(F)(F)F)cc(=O)oc3c2)c2ccccc2)cc1 (centres undefined) | inactive |
| Cc1ccc(C)c(CN2C(=O)c3ccccc3S(=O)(=O)c3ccc(C(=O)Nc4ccccc4C(F)(F)F)cc32)c1 | inconclusive: 39.8 µM [inhibitor, single point] |
| O=C(Nc1ccc(F)cc1)C(c1ccccc1)N1CCN(S(=O)(=O)c2ccc3ccccc3c2)CC1 (centres undefined) | inconclusive: 17.8 µM [inhibitor, single point] |
| COc1ccc(C2C3=C(CC(C)(C)CC3=O)N(CCN3CCOCC3)C3=C2C(=O)CC(C)(C)C3)cc1 | inactive |
